Reference: the RNAGym collection of RNA variant scans (doi:10.1093/nar/gkz1192)
Read counts are not given, so values of variants with three or more changes are uncertain.

B1: CPEB3 Ribozyme (parent)
chain: UAACAGGGGGCCACAGCAGAAGCGUUCACGUCGCAGCCCCUGUCAGAUUCUGGUGAAUCUGCGAAUUCUGCUGUAUAUCUC

Variants of: B1
Assay: self-cleavage, relative activity (ratio to wild type); higher = more cleavage; in vitro, sequencing
Outline: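 CPEB3 self-cleaving ribozyme mutant libraries were made by rounds of error-prone PCR, barcoded, and transcribed in vitro with T7 RNA polymerase for 5 hours at 37°C. Cleavage occurred during transcription and a 15 min DNase I step before EDTA stop. RNAs were reverse transcribed with template switching and Illumina-sequenced, with DNA sequencing mapping barcodes to variants. Relative activity is the variant's cleaved/total read fraction divided by wild type's (minimum 5 reads), averaged across three batches.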
UAACAGGGGGCCACAGCAGAAGCGUUCACGUCCCAGCCCCAGUCAGAUUCUGGUGAAUCUGCGAAUUCUGCUGUAUAACUC gave a self-cleavage of 0.17. For UAACAGGGGGCCACAGCAGAAGCGUUCACGUCCCAGCCCCUGUCAGAUCCUGGCGAAUCUGCGAAUUCCGCUGUAUAUCUC, the self-cleavage was 0.31. Work on UAACAGGGGGCCACAGCAGAAGCGUUCACGUCCCAGCCCCUGUCAGAUUCCGGCGAAUCUGCGAAUUCUGCUGUAUAUCUC yielded a self-cleavage of 0.13. Variant UAACAGGGGGCCACAGCAGAAGCGUUCACGUCCCAGCCCCUGUCAGAUUCUGGUGAAUCUGCGAAUACUGCUGUAUACCUC has a self-cleavage of 0.04. For UAACAGGGGGCCACAGCAGAAGCGUUCACGUCUCGGCCCCUGUCAGAUUCUGGUGGAUCCGCGAAUCCUGCUGUAUAUCCC, the self-cleavage was 0.04. UAACAGGGGGCCACAGCAGAAGCGUUCACGUCUCGGCCCCUGUCAGAUUCUGGUGAAUCUGCGGACUCUGCUGUAUAUCUC gave a self-cleavage of 0.1. Variant UAACAGGGGGCCACAGCAGAAGCGUUCACGUCUCUGCCCCUGUCAGAUUCUGGUGAAUCGGCGAAUUCUGCUGUAUAUCUC has a self-cleavage of 0.12. Variant UAACAGGGGGCCACAGCAGAAGCGUUCACGUCUCAGCCCCUGUCGGAUUCUGGUGUAUCUGCGAACUCUGCUGUAUAUCGC has a self-cleavage of 0.11. Variant UAACAGGGGGCCACAGCAGAAGCGUUCACGUCUCAGCCCCUGUCAGAUUCUGGUGUAUCCGCGAAUUCUGCUGUAUAUCUC has a self-cleavage of 0.15. In the case of UAACAGGGGGCCACAGCAGAAGCGUUCACGUCUCAGCCCCUGUCAGAUUCUGGUGAGUCUGCGUAUUCUGCUGUAUAUCUC, the self-cleavage is reported as 0.07. UAACAGGGGGCCACAGCAGAAGCGUUCACGUCUCAGCCCCUGUCAGAUUCUGGUGAGUCCGCGAAUCCUGCUGUAUAUCUC gave a self-cleavage of 0.08. Variant UAACAGGGGGCCACAGCAGAAGCGUUCACGUCUCAGCCUCUGCCAGAUUCUGGUGAAUCCGCGAAUUCUGCUGUAUAUCUC has a self-cleavage of 0.08. Work on UAACAGGGGGCCACAGCAGAAGCGUUCACGUCUCAGCCCAUGUCAGAUUCUCGUGAAUCUGCGAAUUCUGCUGUAUAUCUC yielded a self-cleavage of 0.1. UAACAGGGGGCCACAGCAGAAGCGUUCACGUCUCAGCCCCUGUCAGAUUCUGGUGAAUCUGCUAAUUCUGCUGUAGUUCUC showed a self-cleavage of 0.17. UAACAGGGGGCCACAGCAGAAGCGUUCACGUCUCAGCCCCAGUCAGAUUCCGCUGAAUCUGCGAAUUCUGCUGUACAUCUC showed a self-cleavage of 0.15. Work on UAACAGGGGGCCACAGCAGAAGCGUUCACGUCUCAGCCCCUGUCAGACUCUGGUGAAUCUGCGAAUUCUGCAGUAUAUCUC yielded a self-cleavage of 0.11. In the case of UAACAGGGGGCCACAGCAGAAGCGUUCACGUCUCAGCCCCUGUCAGAUUCCGGUGAAUCUGCGAAUUAUGCCGUAUAUCUC, the self-cleavage is reported as 0.06. UAACAGGGGGCCACAGCAGAAGCGUUCACGUCUCAGCCCCUGUCAGAUUCUGGAGAAUCUGCGAAUUCAGCUGUAUAUCUC gave a self-cleavage of 0.15. Work on UAACAGGGGGCCACAGCAGAAGCGUUCACGUCUCAGCCCCUGUCAGAUUCUGGUGAAUCUGCGAAUUCAGCUGCAUAUCUC yielded a self-cleavage of 0.06. In the case of UAACAGGGGGCCACAGCAGAAGCGUUCACGUCGACGCCCCUGUCAGAUUCUGGUGAGUCUGUGAAUUCUGCUGUAGAUCUC, the self-cleavage is reported as 0.03. In the case of UAACAGGGGGCCACAGCAGAAGCGUUCACGUCGAAGCCCCUGUCUGAUUCUGGUGAAUCUGCGUAUCCUGCCGUAUAUCUC, the self-cleavage is reported as 0.2. UAACAGGGGGCCACAGCAGAAGCGUUCACGUCGAAGCCCCUGUCUGACUCUGGUGAAUCUGCGAAUACUACUGUAUAUCUC gave a self-cleavage of 0.17. For UAACAGGGGGCCACAGCAGAAGCGUUCACGUCGAAGCCCCUGUCAGGUUCUGGUGAAUCUGCGAAUUCUGCCGUAUACCUC, the self-cleavage was 0.12. For UAACAGGGGGCCACAGCAGAAGCGUUCACGUCGAAGCCCCUGUCAGAUUCUGGUGAGUCUGCGAACUCUGCUGUAUAUCUC, the self-cleavage was 0.13. UAACAGGGGGCCACAGCAGAAGCGUUCACGUCGAAGCCCCCGUCAGAUUCUGGUGAAUCUGCGAAUUCUGCUGUAUAUCUU gave a self-cleavage of 0.48. UAACAGGGGGCCACAGCAGAAGCGUUCACGUCGAAGCCCCCGUCAGAUUCUGGUGAACCUGCGGAUUCUGCUGUAUACCUC showed a self-cleavage of 0.13. In the case of UAACAGGGGGCCACAGCAGAAGCGUUCACGUCGAAGCCCCUGCUGGAUUCUGGUGAGUCUGCGAAUUCUGCUGUAUAUCUC, the self-cleavage is reported as 0.05. In the case of UAACAGGGGGCCACAGCAGAAGCGUUCACGUCGAAGCCCCUGUCAGAUUCCGGUGAAUCUCCGAAUUCUGCUGUAUUUCUC, the self-cleavage is reported as 0.18. With UAACAGGGGGCCACAGCAGAAGCGUUCACGUCGAAGCCCCUGUCAGAUUCCGGAGAAUCUGCGAAUUCUGCUGUAUAUCCC the self-cleavage was 0.17. For UAACAGGGGGCCACAGCAGAAGCGUUCACGUCGAAGCCCCUGUCAGAUUCUGGCGAAUCUGCGGAUUCUGCUGUAUAUCUC, the self-cleavage was 0.19. For UAACAGGGGGCCACAGCAGAAGCGUUCACGUCGAAGCCCCUGUCAGAUUCUGGUGAAACUGCGAGUUCUGCUGUAUAUCUC, the self-cleavage was 0.12. For UAACAGGGGGCCACAGCAGAAGCGUUCACGUCGGAGCCCCUGUCGGAUUCUGGUGAAUCCGCGAAUUCUGCUGUAUAUCUC, the self-cleavage was 0.3. In the case of UAACAGGGGGCCACAGCAGAAGCGUUCACGUCGGAGCCCCUGUCAGAUUCUGGUGGAUCUGCGGAUUCUGCUGUAUAUCUC, the self-cleavage is reported as 0.29. In the case of UAACAGGGGGCCACAGCAGAAGCGUUCACGUCGGAGCCCCCGUCAGAUCCUGGCGAAUCUGGGUAUUCUGCUGUAUACCUC, the self-cleavage is reported as 0.05.
